Experimental data reported in PubChem BioAssay AID1645882 (National Center for Advancing Translational Sciences (NCATS), 2021).
Screen size: about 16,000 compounds; about 120 (0.75%) were called active. Another 4% or so got no clear call; they are omitted. The call rests on the fitted dose curve; in most records, active means well fitted inhibition curve with a large enough effect; inconclusive means small, poorly fitted or top-dose-only effect; inactive means no such curve, though single readings can be large or run the other way. Some of the results follow.

biological target: Rap guanine nucleotide exchange factor 3 (Homo sapiens) (UniProt O95398); experiment: Validation qHTS for antagonist of cAMP-regulated guanine nucleotide exchange factor 3 (EPAC1); conditions: EPAC1 Rap1B-BODIPY-GDP exchange, fluorescence; series mostly up to 150 µM; activity change, negative = inhibition: at the top concentration;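 further: plate controls were DMSO for no effect and ATA control for full effect; nearly all actives have a fitted effect of over 75% in size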
Chain of UniProt O95398 (O95398 whole entry, looked up): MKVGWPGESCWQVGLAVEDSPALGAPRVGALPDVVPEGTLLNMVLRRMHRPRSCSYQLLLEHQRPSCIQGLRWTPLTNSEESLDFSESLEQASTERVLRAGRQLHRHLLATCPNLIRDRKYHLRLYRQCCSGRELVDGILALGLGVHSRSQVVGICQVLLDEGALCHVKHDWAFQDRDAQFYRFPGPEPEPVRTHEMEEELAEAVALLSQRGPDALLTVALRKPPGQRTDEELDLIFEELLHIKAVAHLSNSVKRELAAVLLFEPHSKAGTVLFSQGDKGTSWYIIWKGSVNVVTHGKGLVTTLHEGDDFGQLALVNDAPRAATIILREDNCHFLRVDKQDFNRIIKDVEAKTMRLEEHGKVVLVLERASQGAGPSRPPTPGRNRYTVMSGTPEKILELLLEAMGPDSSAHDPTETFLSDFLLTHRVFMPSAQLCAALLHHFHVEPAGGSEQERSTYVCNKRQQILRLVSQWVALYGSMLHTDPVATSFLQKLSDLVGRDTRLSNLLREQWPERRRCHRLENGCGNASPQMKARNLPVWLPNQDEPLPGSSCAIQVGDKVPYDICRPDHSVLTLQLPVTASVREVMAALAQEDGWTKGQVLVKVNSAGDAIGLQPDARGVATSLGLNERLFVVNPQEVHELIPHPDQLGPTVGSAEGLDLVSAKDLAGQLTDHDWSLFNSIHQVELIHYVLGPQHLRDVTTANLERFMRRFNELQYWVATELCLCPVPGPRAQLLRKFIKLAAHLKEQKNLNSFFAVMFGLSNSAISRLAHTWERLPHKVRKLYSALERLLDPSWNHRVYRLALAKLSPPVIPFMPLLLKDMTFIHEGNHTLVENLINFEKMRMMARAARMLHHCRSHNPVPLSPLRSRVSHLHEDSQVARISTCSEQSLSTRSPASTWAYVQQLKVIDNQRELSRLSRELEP
Summary of the method: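 EPAC1 (100 nM) mixed with 250 nM RAP1B-BODIPY-GDP and 50 uM GDP; compounds in concentration series, 5 min at room temperature. Fluorescence (ex 480/em 540 nm) read every 5 min for 30 min; normalized to ATA control and DMSO.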

| SMILES | activity change, negative = inhibition |
| --- | --- |
| O=C(c1ccco1)N1CCC2(CC1)CN(Cc1ccncc1)C2 | inactive: 8.72% |
| CCN(Cc1ccc(Cl)nc1)/C(=C/[N+](=O)[O-])NC | inactive: 18.1% |
| C1CN(P2(N3CC3)=NP(N3CC3)(N3CC3)=NP(N3CC3)(N3CC3)=N2)CCO1 (centres undefined) | inactive: 29.7% |
| CNC(=O)Oc1cccc2c1OC(C)(C)C2 | inactive: 8.37% |
| C/C(O)=C(\C#N)C(=O)Nc1cc(Br)ccc1Br | inactive: 14.6% [at 75.8 µM] |
| CN1CC[C@]23c4c5ccc(O)c4O[C@H]2[C@@H](O)CC[C@H]3[C@H]1C5 | inactive: -3.96% [at 320 µM] |
| COc1cc([C@@H]2c3cc4c(cc3[C@@H](O)[C@H]3COC(=O)[C@H]23)OCO4)cc(OC)c1O | inactive: 15.5% |
| c1ccc2c(c1)Sc1ccccc1N2C[C@@H]1CN2CCC1CC2 | inactive: 28.5% |
| CN1CC[C@@]2(CCCN(C(=O)Oc3ccccc3)C2)C1 | inactive: 34.6% |
| OC[C@@H](O)[C@H]1O[C@@H]2O[C@@H](C(Cl)(Cl)Cl)O[C@@H]2[C@H]1O | inactive: -0.741% |
| CCCC(C)(COC(N)=O)COC(=O)NC(C)C (centres undefined) | inactive |
| COc1ccc(CC2NCC(O)C2OC(C)=O)cc1 (centres undefined) | inactive: -7% |
| CCCC1CCCCN1 (centres undefined) | inactive: 20% |
| CN1C(=O)CC(=O)N(c2ccccc2)c2cc(Cl)ccc21 | inactive: 15.9% |
| CCC1(C)CC(=O)NC(=O)C1 | inactive: 13.9% [at 75.8 µM] |
| CC1C(=O)OC2CCN3CC=C(COC(=O)[C@](C)(O)[C@]1(C)O)C23 (some centres undefined) | inactive: 5.15% |
| CCCCC/C=C\C/C=C\C/C=C\C/C=C\CCCC(=O)NCC(=O)O | inactive |
| O=C(Nc1cccc(F)c1)N1CC2(CCN(C(=O)Oc3ccccc3)CC2)C1 | inactive: -4.47% |
| O=C(N[C@H]1N=C(c2ccccc2F)c2cccc3c2N(CC3)C1=O)c1cc2ccccc2[nH]1 | inactive: -25% |
| C=C1C([C@@]2(C)C(OC(C)=O)CC(=O)O[C@@](C)(COC(C)=O)C2CC(=O)OC)C(OC=O)C(OC(=O)C(OC(C)=O)C(C)CC)[C@]2(C)C(c3ccoc3)CC(=O)C12O (some centres undefined) | inactive: -15.6% |
| ClCCN(CCCl)c1ccc(C=Nc2ccc(/C=C/c3ccnc4ccccc34)cc2)cc1 | inactive: -15.2% |
| CS(=O)(=O)N1CCC2(CCCN(Cc3ccncc3)C2)CC1 | inactive: 23.4% |

| SMILES | activity change, negative = inhibition |
| --- | --- |
| O=C1NCN(c2ccccc2)C12CCN(C[C@H]1COc3ccccc3O1)CC2 | inactive: -7.13% |
| CC(O)CN1CCN(CC(=O)[O-])CCN(CC(=O)[O-])CCN(CC(=O)[O-])CC1.[Gd+3] (centres undefined) | inactive |
| C[C@H]1C(=O)O[C@H]2CCN3CC=C(COC(=O)[C@](C)(O)[C@@]1(C)O)C23 (some centres undefined) | inactive: 9.12% |
| CC(=O)OC1C2C(OC(=O)Cc3ccccc3)C(C)CC2(OC(C)=O)C(=O)/C(C)=C/C2C(CC[C@@]13CO3)C2(C)C (some centres undefined) | inactive: -0.931% |
| OC(c1ccccc1)(c1ccccc1)C1CCNCC1 | inactive: 10.1% [at 75.8 µM] |
| C[C@]12CCC(=O)C=C1CC[C@@H]1[C@@H]2CC[C@]2(C)C(=O)CC[C@@H]12 | inactive |
| CC1=CCCC2C1(C)CCC(C)C2(C)CC/C(C)=C/C[n+]1cn(C)c2c(N)ncnc21 (centres undefined) | inactive: 5.58% |
| COCC#CCN1CCCCC1c1cccnc1 (centres undefined) | inactive: 14.4% |
| NC(=O)OCCCc1ccccc1 | inactive: -6.42% |
| Nc1c(Cl)c(Cl)c(Cl)c(Cl)c1Cl | inactive: 28.6% [at 320 µM] |
| COc1ccc(NC(=O)N2CCC3(CC2)CCN(C(=O)Oc2ccccc2)CC3)cc1 | inactive: -2.47% |
| NC1CCc2cc(O)c(O)cc2C1 (centres undefined) | inactive |
| CC1CC(O)[C@]2(O)[C@]13CC(=O)OC[C@@]2(C)[C@@](C)(O)C(=O)C3 (some centres undefined) | inactive: 11.4% |
| Cc1cccc(C(C)c2cnc[nH]2)c1C (centres undefined) | inactive: 13.9% |
| COc1cc(OC)c(OC)cc1C=O | inactive |
| O=C(O)[C@@H]1C[C@H]2C[C@@H](CP(=O)(O)O)CC[C@H]2CN1 | inactive: 1.71% |
| NN=C(N)N | inactive |
| COc1cc2c(cc1O)CC1c3c(cc(O)c(OC)c3-2)CCN1C (centres undefined) | inactive |
| C#CC(C)(O)CC (centres undefined) | inactive: 4.87% |
| C[C@H](NC(=O)[C@@H](N)Cc1ccc(O)cc1)C(=O)NCC(=O)N(C)[C@@H](Cc1ccccc1)C(=O)N[C@H](CO)CCS(C)=O (some centres undefined) | inactive: 14.9% [at 15.3 µM] |
| CN1C[C@@H](C(=O)N[C@@]2(C)O[C@]3(O)C4CCCN4C(=O)[C@@H](Cc4ccccc4)N3C2=O)C=C2c3cccc4[nH]cc(c34)C[C@@H]21 (some centres undefined) | inactive: 7.81% |
| Clc1ccc(C(c2ccc(Cl)cc2)C(Cl)(Cl)Cl)cc1 | inactive |

| SMILES | activity change, negative = inhibition |
| --- | --- |
| COC[C@]12CN(C=O)C3C4C(OC)C1[C@@]3(C1CC3(O)C(OC)C(O)C4(OC(C)=O)C1C3OC(=O)c1ccccc1)[C@@H](OC)CC2O (some centres undefined) | inactive: -13.9% |
| CCC1CN2CCC1CC2C(O)c1ccnc2ccc(OC)cc12 (centres undefined) | inactive: 3.61% |
| COc1cc(N)c(Cl)cc1C(=O)NC1CN2CCC1CC2 (centres undefined) | inactive: 7.14% |
| C[N+]1(C)C2CCC1CC(OC(=O)c1c[nH]c3ccccc13)C2 (centres undefined) | inactive: -6.06% [at 75.8 µM] |
| CC(Cc1cccc(C(F)(F)F)c1)NCCCc1ccccc1 (centres undefined) | inactive: -0.579% |
| c1ccc2sc(C3(N4CCCCC4)CCCCC3)cc2c1 | inactive |
| COc1ccc(CCN)cc1 | inactive: 37.5% |
| COc1ccc(NC(=O)N2CC3(CCN(C(=O)Oc4ccccc4)CC3)C2)cc1 | inactive: 14.4% |
| CC(O)C(C)OC(=O)[C@@H]1C[C@@H]2c3cccc4c3c(cn4C(C)C)C[C@H]2N(C)C1 (some centres undefined) | inactive: 32.4% |
| CCc1cc2c(s1)-n1c(C)nnc1CN=C2c1ccccc1Cl | inactive: 7.82% |
| c1cc(CN2CCC3(CCNCC3)CC2)ccn1 | inactive: 6.99% |
| C[C@]12CCC(=O)C(O)=C1CC[C@@H]1[C@H]3CCC(=O)[C@@]3(C)CC[C@@H]12 | inactive: 15.4% |
| CN1CC(CO)=C[C@H]2c3cccc4[nH]cc(c34)C[C@H]21 | inactive: 11.6% |
| CN[C@@H]1C[C@H](c2ccc(Cl)c(Cl)c2)c2ccccc21 | inactive: -15.5% |
| C[C@H]1CC[C@]2(NC1)O[C@H]1C[C@H]3[C@@H]4CC[C@H]5C[C@@H](O[C@@H]6O[C@H](CO)[C@H](O[C@@H]7O[C@H](CO)[C@@H](O)[C@H](O[C@@H]8OC[C@@H](O)[C@H](O)[C@H]8O)[C@H]7O[C@@H]7O[C@H](CO)[C@@H](O)[C@H](O)[C@H]7O)[C@H](O)[C@H]6O)CC[C@]5(C)[C@H]4CC[C@]3(C)[C@H]1[C@@H]2C | inactive: -1.18% |
| C[N+]1([O-])CCC[C@@H]1c1cccnc1 (some centres undefined) | inactive: 27% |
| O=C1CCO1 | inactive |
| O=C(CCCN1CCC(n2c(=O)[nH]c3ccccc32)CC1)c1ccc(F)cc1 | inactive: 31.5% [at 75.8 µM] |
| O=C1C2CCN(CC2)C1(CO)CO | inactive: 5.23% |
| CN1CC(CNC(=O)OCc2ccccc2)CC2c3cccc4c3c(cn4C)CC21 (centres undefined) | inactive: 8.83% |
